Measurements published in a collection of fitness landscapes (doi:10.1016/j.celrep.2020.107928).
Whole data set: some 81,000 sequences, median “one-hybrid fitness for binding NBS DNA” near -0.1, cut for the highest 2% near 0.36. The list shows a part of the results.

B1: Caulobacter ParB omega fusion; a variant is named by its letters at X, in order, B8GW30 (parent)
chain: MESVVVGEPGMSEGRRGLGRGLSALLGEVDAAPAQAPGEQLGGSREAPIEILQRNPDQPRRTFREEDLEDLSNSIREKGVLQPILVRPSPDTAGEYQIVAGERAWRAAQRAGLKTVPIMVRELDDLAVLEIGIIENVQRADLNVLEEALSYKVLMEKFERTQENIAQTIGKSXSHVANXMRLLXLPDEVQSYLVSGELTAXHARAIAAAADPVALAKQIIEGGLSVRETEALARKAPNLSAGKSKGGRPPRVKDTDTQALESDLSSVLGLDVSIDHRGSTGTLTITYATLEQLDDLCNRLTRGI

Variants of: B1
Assay: one-hybrid fitness for binding NBS DNA (the Noc-binding site; scaled: cognate 1, non-cognate 0); higher = stronger binding
Details: with NBS DNA site
Method in brief: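 On M9-minus-histidine containing 0.1 mM IPTG and 5 mM 3-AT, E. coli USO cells with a HIS3 reporter, site 19 bp from the promoter, grew 48 hours at 37°C to select Caulobacter ParB libraries randomised at four specificity codons. Plasmids from before and after were Illumina-sequenced, with three replicate libraries pooled and variants under 10 reads left out. Fitness is the log change in variant-to-wild-type read ratio, rescaled against cognate and non-cognate.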

Row | Variant | one-hybrid fitness for binding NBS DNA
1 | SVTP | ≤ 0.2
2 | PARC | ≤ 0.2
3 | QSCR | 0.493
4 | EMQR | ≤ 0.2
5 | CYST | ≤ 0.2
6 | ATLN | ≤ 0.2
7 | WIIC | ≤ 0.2
8 | SHQT | ≤ 0.2
9 | PPAI | ≤ 0.2
10 | TATQ | ≤ 0.2
11 | CQQR | ≤ 0.2
12 | ADQC | ≤ 0.2
13 | NRYA | ≤ 0.2
14 | CNCY | ≤ 0.2
15 | DPPY | ≤ 0.2
16 | WTWC | ≤ 0.2
17 | FQTK | ≤ 0.2
18 | LDTI | ≤ 0.2
19 | GLFN | ≤ 0.2
20 | ESHK | ≤ 0.2
21 | EING | ≤ 0.2
22 | VVER | ≤ 0.2
23 | PETN | ≤ 0.2
24 | RHYA | ≤ 0.2

Row | Variant | one-hybrid fitness for binding NBS DNA
25 | LPKA | ≤ 0.2
26 | PEPR | ≤ 0.2
27 | VSET | ≤ 0.2
28 | QPAS | ≤ 0.2
29 | SADC | ≤ 0.2
30 | HVLT | ≤ 0.2
31 | EYLC | ≤ 0.2
32 | VMWS | ≤ 0.2
33 | YTIR | ≤ 0.2
34 | RAQD | ≤ 0.2
35 | QMRH | 0.584
36 | RWAC | ≤ 0.2
37 | VHRT | ≤ 0.2
38 | YTFS | ≤ 0.2
39 | QYPP | ≤ 0.2
40 | WMHT | ≤ 0.2
41 | QGRT | ≤ 0.2
42 | SSDY | ≤ 0.2
43 | PGPK | ≤ 0.2
44 | IEAL | ≤ 0.2
45 | LNYF | ≤ 0.2
46 | KRWK | ≤ 0.2
47 | LIIE | ≤ 0.2
48 | SRCF | ≤ 0.2

Row | Variant | one-hybrid fitness for binding NBS DNA
49 | GCLM | ≤ 0.2
50 | QLFS | ≤ 0.2
51 | VLQW | ≤ 0.2
52 | MDYV | ≤ 0.2
53 | CANG | ≤ 0.2
54 | QRHI | 0.358
55 | LFRV | ≤ 0.2
56 | DKHC | ≤ 0.2
57 | RKLP | ≤ 0.2
58 | DNLW | ≤ 0.2
59 | ITDT | ≤ 0.2
60 | HAID | ≤ 0.2
61 | YYAS | ≤ 0.2
62 | ALGS | ≤ 0.2
63 | NFMS | ≤ 0.2
64 | AVDI | ≤ 0.2
65 | GLDV | ≤ 0.2
66 | ASQM | ≤ 0.2
67 | HITP | ≤ 0.2
68 | MFNR | ≤ 0.2
69 | ISPE | ≤ 0.2
70 | YVHY | ≤ 0.2
71 | MWRC | ≤ 0.2
72 | RDTN | ≤ 0.2

Row | Variant | one-hybrid fitness for binding NBS DNA
73 | HHDK | ≤ 0.2
74 | NNSC | ≤ 0.2
75 | DKNS | ≤ 0.2
76 | HLQP | ≤ 0.2
77 | SMSW | ≤ 0.2
78 | ITSS | ≤ 0.2
79 | IFPM | ≤ 0.2
80 | GQWC | ≤ 0.2
81 | KANA | ≤ 0.2
82 | LAVK | ≤ 0.2
83 | DSFI | ≤ 0.2
84 | GASV | ≤ 0.2
85 | DELM | ≤ 0.2
86 | FSVV | ≤ 0.2
87 | NDMR | ≤ 0.2
88 | FGIY | ≤ 0.2
89 | ASLN | ≤ 0.2
90 | RFIE | ≤ 0.2
91 | LLSI | ≤ 0.2
92 | IMSC | ≤ 0.2
93 | LQSR | ≤ 0.2
94 | AHMA | ≤ 0.2
95 | QIMM | ≤ 0.2
96 | IMAV | ≤ 0.2

Row | Variant | one-hybrid fitness for binding NBS DNA
97 | AVPI | ≤ 0.2
98 | HMLC | ≤ 0.2
99 | WIRR | ≤ 0.2
100 | TLIF | ≤ 0.2
101 | FWGR | 0.22
102 | FNQL | ≤ 0.2
103 | RGDV | ≤ 0.2
104 | AIRS | ≤ 0.2
105 | HYDV | ≤ 0.2
106 | PNWG | ≤ 0.2
107 | YVQE | ≤ 0.2
108 | TGCE | ≤ 0.2
109 | EQDS | ≤ 0.2
110 | KHQS | ≤ 0.2
111 | PQTY | ≤ 0.2
112 | RHPH | ≤ 0.2
113 | RHQQ | ≤ 0.2
114 | VSAL | ≤ 0.2
115 | ITLC | ≤ 0.2
116 | FRMC | ≤ 0.2
117 | SKKY | ≤ 0.2
118 | RFMT | ≤ 0.2
119 | HDLV | ≤ 0.2
120 | PEHS | ≤ 0.2

Row | Variant | one-hybrid fitness for binding NBS DNA
121 | SAWR | ≤ 0.2
122 | YMMV | ≤ 0.2
123 | IKMM | ≤ 0.2
124 | IARQ | ≤ 0.2
125 | TIMD | ≤ 0.2
126 | RKFG | ≤ 0.2
127 | INEL | ≤ 0.2
128 | LCSI | ≤ 0.2
129 | YVKC | ≤ 0.2
130 | CCNC | ≤ 0.2
131 | RQLV | ≤ 0.2
132 | SYDS | ≤ 0.2
133 | RAWV | ≤ 0.2
134 | RQLK | ≤ 0.2
135 | SFLI | ≤ 0.2
136 | MYGF | ≤ 0.2
137 | RYYF | ≤ 0.2
138 | VPHD | ≤ 0.2
139 | TYHH | ≤ 0.2
140 | SWVD | ≤ 0.2
141 | PFSE | ≤ 0.2
142 | AFRT | ≤ 0.2
143 | QMSC | ≤ 0.2
144 | KRQH | 0.221

Row | Variant | one-hybrid fitness for binding NBS DNA
145 | PITV | ≤ 0.2
146 | LSPL | ≤ 0.2
147 | RCFG | ≤ 0.2
148 | VFCL | ≤ 0.2
149 | VART | ≤ 0.2
150 | EHPL | ≤ 0.2
151 | PLDK | ≤ 0.2
152 | FAGR | ≤ 0.2
153 | DGHY | ≤ 0.2
154 | YPPL | ≤ 0.2
155 | TRCK | ≤ 0.2
156 | TLQT | ≤ 0.2
157 | WLGW | ≤ 0.2
158 | ISSW | ≤ 0.2
159 | TACV | ≤ 0.2
160 | KMAA | ≤ 0.2
161 | ATKY | ≤ 0.2
162 | RLLD | ≤ 0.2
163 | PCPD | ≤ 0.2
164 | WHSR | ≤ 0.2
165 | QMVG | ≤ 0.2
166 | TWIT | ≤ 0.2
167 | PWLT | ≤ 0.2
168 | YHRC | ≤ 0.2

Row | Variant | one-hybrid fitness for binding NBS DNA
169 | RHRH | 0.32
170 | SMWR | ≤ 0.2
171 | HVRW | ≤ 0.2
172 | TALS | ≤ 0.2
173 | ARIE | ≤ 0.2
174 | PREV | ≤ 0.2
175 | ADVD | ≤ 0.2
176 | SPMC | ≤ 0.2
177 | HANT | ≤ 0.2
178 | LYSW | ≤ 0.2
179 | RQNY | ≤ 0.2
180 | GNIW | ≤ 0.2
181 | VTPR | ≤ 0.2
182 | SVNV | ≤ 0.2
183 | IWNG | ≤ 0.2
184 | GLSF | ≤ 0.2
185 | SSAE | ≤ 0.2
186 | KFSC | ≤ 0.2
187 | VYRY | ≤ 0.2
188 | GVKR | ≤ 0.2
189 | FMWR | ≤ 0.2
190 | MIES | ≤ 0.2
191 | VKDR | ≤ 0.2
192 | LYPA | ≤ 0.2

Row | Variant | one-hybrid fitness for binding NBS DNA
193 | SGRP | ≤ 0.2
194 | NTKI | ≤ 0.2
195 | PYQT | ≤ 0.2
196 | ANFK | ≤ 0.2
197 | VAAK | ≤ 0.2
198 | FRHA | ≤ 0.2
199 | ALLN | ≤ 0.2
200 | LAAV | ≤ 0.2
201 | HPQQ | ≤ 0.2
202 | NTSF | ≤ 0.2
203 | VCDR | ≤ 0.2
204 | IDLS | ≤ 0.2
205 | PAEA | ≤ 0.2
206 | SRMD | ≤ 0.2
207 | DHNQ | ≤ 0.2
208 | RSCQ | ≤ 0.2
209 | TWLY | ≤ 0.2
210 | FLPM | ≤ 0.2
211 | GLKK | ≤ 0.2
212 | QTME | ≤ 0.2
213 | RLDC | ≤ 0.2
214 | IQRL | ≤ 0.2
215 | RSFG | ≤ 0.2
216 | KWRA | ≤ 0.2

Row | Variant | one-hybrid fitness for binding NBS DNA
217 | CLDY | ≤ 0.2
218 | KFRN | ≤ 0.2
219 | ILTG | ≤ 0.2
220 | IDRP | ≤ 0.2
221 | AAFI | ≤ 0.2
222 | CRTT | ≤ 0.2
223 | GVRL | ≤ 0.2
224 | DWST | ≤ 0.2
225 | WAGG | ≤ 0.2
226 | KRSM | ≤ 0.2
227 | PWNG | ≤ 0.2
228 | ASPY | ≤ 0.2
229 | HDRW | ≤ 0.2
230 | EAQQ | ≤ 0.2
231 | FTQV | ≤ 0.2
232 | YDLG | ≤ 0.2
233 | HLHG | ≤ 0.2
234 | AIFT | ≤ 0.2
235 | PLPN | ≤ 0.2
236 | TGCM | ≤ 0.2
237 | LQTK | ≤ 0.2
238 | KGFI | ≤ 0.2
239 | NSSN | ≤ 0.2
240 | ATCC | ≤ 0.2

Row | Variant | one-hybrid fitness for binding NBS DNA
241 | QNIE | ≤ 0.2
242 | SERG | ≤ 0.2
243 | SETT | ≤ 0.2
244 | FTAQ | ≤ 0.2
245 | TMTV | ≤ 0.2
246 | VRSE | ≤ 0.2
247 | PCYG | ≤ 0.2
248 | TMTP | ≤ 0.2
249 | YGFV | ≤ 0.2
250 | PEKN | ≤ 0.2
251 | SNPK | ≤ 0.2
252 | CEAV | ≤ 0.2
253 | KGRW | ≤ 0.2
254 | NHNC | ≤ 0.2
255 | THRH | ≤ 0.2
256 | TPGT | ≤ 0.2
257 | FVPG | ≤ 0.2
258 | DWDT | ≤ 0.2
259 | YAGV | ≤ 0.2
260 | KPRL | ≤ 0.2
261 | DGVS | ≤ 0.2
262 | PWDT | ≤ 0.2
263 | RQAT | 0.385
264 | VRDY | ≤ 0.2

Row | Variant | one-hybrid fitness for binding NBS DNA
265 | CHRF | ≤ 0.2
266 | RWVI | ≤ 0.2
267 | QISE | ≤ 0.2
268 | RPMS | ≤ 0.2
269 | HLLS | ≤ 0.2
270 | WTSF | ≤ 0.2
271 | VELW | ≤ 0.2
272 | HNNT | ≤ 0.2
273 | SADA | ≤ 0.2
274 | HLTT | ≤ 0.2
275 | MIRY | ≤ 0.2
276 | APEM | ≤ 0.2
277 | PPCV | ≤ 0.2
278 | LCPS | ≤ 0.2
279 | ACPK | ≤ 0.2
280 | SASI | ≤ 0.2
281 | LSPG | ≤ 0.2
282 | NSHP | ≤ 0.2
283 | QHIY | ≤ 0.2
284 | GAYR | ≤ 0.2
285 | MYTL | ≤ 0.2
286 | TMSQ | ≤ 0.2
287 | PLHG | ≤ 0.2
288 | EKDG | ≤ 0.2

Row | Variant | one-hybrid fitness for binding NBS DNA
289 | CGPC | ≤ 0.2
290 | CKSR | ≤ 0.2
291 | VCSC | ≤ 0.2
292 | QGWS | ≤ 0.2
293 | MTNL | ≤ 0.2
294 | REQP | ≤ 0.2
295 | MAFM | ≤ 0.2
296 | RMPM | ≤ 0.2
297 | SHCR | ≤ 0.2
298 | YCHT | ≤ 0.2
299 | EGYR | ≤ 0.2
300 | CDNT | ≤ 0.2
301 | VKDT | ≤ 0.2
302 | HVIS | ≤ 0.2
303 | AVAW | ≤ 0.2
304 | PCIC | ≤ 0.2
305 | SLTI | ≤ 0.2
306 | RVEL | ≤ 0.2
